# According to PubChem BioAssay AID1508642 (National Center for Advancing Translational Sciences (NCATS), 2021):
# Among all 43,000 compounds or so, about 200 (0.47%) were called active. About 12% were inconclusive and are not listed. Calls follow the shape of the dose curve; as a rule, active = well fitted cell-killing curve with a large enough effect; inconclusive = small, poorly fitted or top-dose-only effect, or effect the other way; inactive = flat fitted curve, though single readings scatter. This is one part of the list.
# Experiment: Cell viability qHTS assay in S16 Pmp22-F2sN cells; also: nearly all actives have a fitted effect of over 65% in size
# Details: S16 Pmp22-F2sN Schwann cells viability, CellTiter-Glo, 24 h; series mostly up to 57.5 µM; activity change, negative = cytotoxicity: at the top concentration
# How it was run: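 Used to flag compounds lowering reporter output through toxicity, this quantitative HTS measures ATP-based CellTiter-Glo luminescence in S16 Pmp22-F2sN Schwann cells after 24 h compound exposure at 37C.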
# % is scaled to controls: 0 for no effect and ±100 for the full control effect.
row,Compound,"activity change, negative = cytotoxicity"
1,CC(C)Oc1ccc(C(=O)N2CCC(c3nc4ccccc4s3)CC2)cc1,inactive: 16.7%
2,Cc1ccc(SCCNC(=O)CN(c2cccc(C)c2C)S(C)(=O)=O)cc1,inactive: 28.9%
3,COc1cc(C(=O)Nc2ccc(-c3nc4cc(C)c(C)cc4o3)cc2)cc(OC)c1OC,inactive: 0.51%
4,CCOC(=O)c1ccc(NC(=O)CCc2c(C)nc3cc(-c4ccc(OC)cc4OC)nn3c2C)cc1,inactive: 0.634%
5,CCC(C)NC(=O)Cn1c(=O)n(-c2cc(OC)cc(OC)c2)c(=O)c2ccccc21 (centres undefined),inactive: 19.9%
6,CC(=O)Nc1ccc(S(=O)(=O)N2CCC(n3c(C)nc4cccnc43)CC2)cc1,inactive: -16.9%
7,CCOC(=O)c1c(C)oc2nc(C)nc(NCCc3ccc(OCC)cc3)c12,inactive: -26.6%
8,COc1ccc(C(=O)NCC(=O)OCc2cc(=O)n3nc(C4CCCCC4)sc3n2)cc1,inactive: -13.7%
9,Cc1ccccc1-c1nc(CS(=O)(=O)CC(=O)NCCCN2CCN(C)CC2)c(C)o1,inactive: -6.55%
10,COc1ccc(-n2nnc(-c3nc(-c4ccc5c(c4)OCO5)no3)c2C)cc1Cl,inactive: 5.41%
11,COc1ccc(NC(=O)CSc2nncn3c2cc2occc23)c(OC)c1,inactive: 1.37%
12,CCc1ccccc1NC(=O)Cn1c(=O)n(-c2ccccc2)c(=O)c2oc3ccccc3c21,inactive: 10.6%
13,O=C(Cn1c(=O)n(Cc2ccco2)c(=O)c2ccccc21)Nc1cccc(F)c1,inactive: 18.3%
14,COc1ccc(NC(=O)Cn2c(=O)n(Cc3ccco3)c(=O)c3sc4ccccc4c32)cc1OC,inactive: 3.17%
15,CCOc1cc(C#N)c(NC(=O)c2ccc(OC)c(S(=O)(=O)N3CCCCC3)c2)cc1OCC,inactive: 4.65%
16,CC(=O)c1ccc(NC(=O)c2cnc(N3CCCC3)nc2C)cc1,inactive: -5.88%
17,Cc1ccc(-n2c(-c3ccc(Br)cc3)nc3c(cnn3-c3ccccc3)c2=O)cc1,inactive: -15.8%
18,Cc1ccc(N2CCN(C(=O)c3cn(C)c4ccc(S(=O)(=O)N5CCC(C)CC5)cc4c3=O)CC2C)cc1 (centres undefined),inactive: 14%
19,O=C(Nc1nnc(S(=O)(=O)N2CCCc3ccccc32)s1)c1ccc(Cl)cc1,inactive: 6.37%
20,CCN(C(=O)CSc1nc(-c2ccc(C(C)C)cc2)no1)c1ccccc1,inactive: -4.98%
21,COc1ccc2c(c1)CC(C(=O)Nc1ccc(Br)c(C)c1)CO2 (centres undefined),inactive: -8.18%
22,Cc1c2cnn(-c3ccccc3)c(=O)c2c(C)n1CC(=O)Nc1ccccc1Br,inactive: 1.13%
23,COc1ccccc1N1CCN(S(=O)(=O)c2ccc(-c3coc(C)n3)cc2)CC1,inactive: 13.2%
24,COc1cccc(C2CC(=O)Nc3c2c(=O)n(C)c2nc4ccccc4n32)c1 (centres undefined),inactive: -1.42%

row,Compound,"activity change, negative = cytotoxicity"
1,CCOC(=O)c1c(C)[nH]c(C)c1S(=O)(=O)N(C)CC(=O)Nc1cccc(C(F)(F)F)c1,inactive: 27.8%
2,CCOC(=O)C1CCN(C(=O)Cn2ncc3c([nH]c4ccccc43)c2=O)CC1,inactive: 1.33%
3,O=C(Cn1c(=O)n(Cc2nc(-c3ccccc3)no2)c(=O)c2cc3c(cc21)OCO3)Nc1cccc(C(F)(F)F)c1,inactive: 3.7%
4,COc1ccc(-c2ccc(CCC(=O)O)n2-c2cc(Cl)ccc2O)cc1,inactive: 5.9%
5,Cc1cc(C)cc(NC(=O)Cn2c(=O)n(Cc3ccc4c(c3)OCO4)c(=O)c3oc4ccccc4c32)c1,inactive: -0.693%
6,Cc1cccc(CNC(=O)Cn2ccc3cc(S(=O)(=O)N4CCC(C)CC4)ccc32)c1,inactive: -2.91%
7,CCOc1ccc(NC(=O)C(C)Sc2nc3ncccc3o2)cc1 (centres undefined),inactive: -3.53%
8,CC1CCN(S(=O)(=O)c2ccc3c(c2)N(CC(=O)NCCCN2CCCC(C)C2)C(=O)CS3)CC1 (centres undefined),inactive: -15.6%
9,Cc1cccc(CNC(=O)c2ccc(NC(=O)N3CCSc4ncccc43)cc2)c1,inactive: 6.33%
10,Cc1cccc(NC(=O)c2oc3ccc(S(=O)(=O)N4CCC5(CC4)OCCO5)cc3c2C)c1C,inactive: -23.1%
11,CC(=O)c1ccc(N2CCN(c3ncnc4c3cnn4C)CC2)cc1,inactive: -9.48%
12,Cc1ccc2c(c1)-c1ncc(C(=O)c3cc(Br)ccc3O)cc1CO2,inactive: 21.3%
13,Cn1nc(-c2ccc(N3CCCCC3)c(NC(=O)c3ccc(Cl)cc3)c2)c2ccccc2c1=O,inactive: 2.38%
14,COc1ccc(C)cc1NC(=O)CN1C(=O)COc2ccc(S(=O)(=O)NC3CCCC3)cc21,inactive: 13.8%
15,CCOc1ccccc1NC(=O)c1nn(C)c2c1CSc1ccccc1-2,inactive: 0.344%
16,CCOc1ccc(-c2csc(-c3c(N)c(C(=O)c4ccc5c(c4)OCO5)n4ccccc34)n2)cc1,inactive: 9.93%
17,CCCn1c(=NC(=O)c2c(-c3c(F)cccc3Cl)noc2C)c(C(=O)OCC)cc2c(=O)n3ccccc3nc21,inactive: 0.122%
18,CC(=O)c1cccc(Nc2ccc3cc(S(=O)(=O)N4CCCC4)ccc3n2)c1,inactive: 19.4%
19,Cc1ccc(-n2ncc(C(=O)NCCN3CCc4ccccc4C3)c2C2CCNCC2)cc1C,inactive: -21.6%
20,COc1ccc(NC(=O)c2cc(=O)c3ccc(C)c(C)c3o2)cc1Cl,inactive: 0.329%
21,CCOC(=O)c1cc(S(=O)(=O)Nc2ccccc2OCC)[nH]n1,inactive: -3.11%
22,Cc1ccccc1CSc1nc2c([nH]c3ccccc32)c(=O)n1C,inactive: 8.27%
23,COc1ccc(-n2c(=O)c3c4c(sc3n3c(SC(C)C)nnc23)COC(C(C)C)C4)cc1 (centres undefined),inactive: 15.2%
24,CCCc1cc(=O)[nH]c(SCc2nc(-c3ccccc3F)no2)n1,inactive: -0.079%

row,Compound,"activity change, negative = cytotoxicity"
1,COc1ccc(NC(=O)CSC2=Nc3ccccc3C3=NC(CC(=O)NCc4ccc5c(c4)OCO5)C(=O)N23)cc1 (centres undefined),inactive: 3.32%
2,CCOc1ccc(C(c2c(O)cc(C)n(Cc3ccco3)c2=O)N2CCN(c3ccccc3)CC2)cc1 (centres undefined),inactive: -0.447%
3,Cc1cccc(CNC(=O)C2CCN(S(=O)(=O)c3ccc4c(c3)CCCN4C(=O)C3CCC3)CC2)c1,inactive: 6.12%
4,CCCc1cnc2c(c1SCC(=O)Nc1ccccc1F)c(=O)n(C)c(=O)n2C,inactive: -2.8%
5,CCCCCc1nn2cc(-c3ccccc3)nc2s1,inactive: 11%
6,Cn1nnnc1SCCCNCc1cc(Cl)ccc1OCc1ccccc1F,inactive: -28.9%
7,Cc1cccc(N2CCN(S(=O)(=O)c3c(C(=O)N4CCC(C)CC4)c(C)n(C)c3C)CC2)c1C,inactive: -19.9%
8,Cc1ccc(NC(=O)Cn2cnc3sc(C)c(S(=O)(=O)N4CCN(c5ncccn5)CC4)c3c2=O)cc1F,inactive: 11.1%
9,COC(=O)c1ccc(NC(=O)CC2C(=O)N(c3ccccc3)C(=O)N2Cc2ccco2)cc1 (centres undefined),inactive: 1.7%
10,COc1cc(Nc2ncc3c(n2)CCN(Cc2cc(F)cc(F)c2)C3)cc(OC)c1,inactive: -11%
11,CCc1nn(Cc2c(C)cc(C)cc2C)c(=O)c2cc3cc(C)ccc3n12,inactive: 3.49%
12,O=C(Nc1ccc(F)cc1F)N1CCN(c2ccc(Cl)c(Cl)c2)CC1,inactive: -0.791%
13,CCCC12CN3CC(CCC)(CN(C1)C3c1c(C)[nH]c(=O)[nH]c1=O)C2=O (centres undefined),inactive: 14.5%
14,Cc1ccc(C2C=C(c3ccc(Cl)cc3)Nc3nc(NC(=O)c4ccco4)nn32)cc1 (centres undefined),inactive: -10.3%
15,Cc1cc(C)cc(N2C(=O)CCSC23C(=O)N(Cc2ccccc2)c2ccccc23)c1 (centres undefined),inactive: 2.89%
16,O=S(=O)(NCCc1csc2nc(-c3ccc(F)cc3)nn12)c1ccc(Oc2ccccc2)cc1,inactive: -19.7%
17,CCOc1ccc(CCNC(=O)c2ccc3c(c2)sc2nc(-c4ccc(F)cc4)cn23)cc1OCC,inactive: 4.29%
18,CC1CN(C(=O)CCC(=O)NCc2ccccc2)c2cc(Cl)ccc2O1 (centres undefined),inactive: -22%
19,CC(C)(C)NC(=O)c1ccc2nc(CCc3ccccc3)oc2c1,inactive: 0.11%
20,COc1ccc(-c2nc(-c3ccccc3)c(-c3ccc(F)cc3)[nH]2)c(OC)c1C,inactive: -2.35%
21,CCOC(=O)c1ccn(-c2nc(-c3cccc(OC)c3)cc(C(F)(F)F)n2)n1,inactive: 1.41%
22,Cc1ccc(N2CC(NC(=O)C3CC3)CC2=O)cc1C (centres undefined),inactive: 0.223%
23,Cc1nc2sccn2c(=O)c1S(=O)(=O)Nc1ccc(N2CCN(C(=O)C(C)C)CC2)cc1,inactive: -8.11%
24,CCOC(=O)c1[nH]c(C)c(CCC(=O)Nc2ccc(Br)c(C)c2)c1C,inactive: -1.13%

row,Compound,"activity change, negative = cytotoxicity"
1,Cc1ccc(C(CC(=O)Nc2ccc(F)c(Cl)c2)N2Cc3ccccc3C2=O)cc1 (centres undefined),inactive: 4.44%
2,COc1cccc(NC(=O)N(Cc2c[nH]c3ccccc23)C2CCCCC2)c1,inactive: 16.5%
3,COc1cccc(CNCCSc2nnnn2C)c1OCc1ccc(F)cc1,inactive: -8.78%
4,CC(C)c1ccc(NC(=O)CCn2c(=O)c3cccn3c3ccccc32)cc1,inactive: -8.45%
5,Cc1ccc(-c2nc3c4ccccc4n(CC(=O)N4CCN(c5ccc(F)cc5)CC4)c(=O)n3n2)cc1,inactive: 0.455%
6,Cc1cc(C)cc(Nc2cc(C)nc3nc(-c4ccco4)nn23)c1,inactive: -13.1%
7,CCOC(=O)c1c(NC(=O)c2cc(-c3ccc(Cl)cc3)on2)sc(C)c1C,inactive: -0.472%
8,CCC(C)NC(=O)Cn1c(-c2cccs2)cc2cc(Cl)ccc21 (centres undefined),inactive: 3.59%
9,Cc1cc(N2CCC(C(=O)NCCC(C)C)CC2)n2nc(C)c(-c3ccc(Cl)cc3)c2n1,inactive: 11.4%
10,Cc1ccc(CN(C(=O)c2ccccc2[N+](=O)[O-])c2ccccn2)cc1,inactive: 15.7%
11,Cn1c(=O)c2c(SCC(=O)Nc3ccc(F)cc3F)nc(C3CCCC3)nc2n(C)c1=O,inactive: 15%
12,CCOC(=O)c1cnc(N2CCN(c3ccc(C)cc3C)CC2)c2ccccc12,inactive: 2.17%
13,CC(C)(C)c1ccccc1NC(=O)c1cnn2c(C(F)F)cc(-c3ccccc3)nc12,inactive: 19%
14,CSc1cccc(NC(=O)CN2C(=O)COc3ccc(S(=O)(=O)N4CCC(C)CC4)cc32)c1,inactive: -6.26%
15,Cc1ccc(C)c(NC(=O)Cn2ccn(-c3ccc(F)cc3)c(=O)c2=O)c1,inactive: -4.04%
16,CCOC(=O)c1cc(OC(=O)c2cc(OC)cc(OC)c2)n(-c2ccccc2)n1,inactive: 6.23%
17,Clc1ccc2nc(-c3cccs3)c(Nc3ccc4c(c3)OCCO4)n2c1,inactive: -4.38%
18,CCc1nonc1NC(=O)c1oc2ccc(Cl)cc2c1C,inactive: -3.28%
19,Cc1ccc(Cl)cc1NC(=O)Cn1c(SCC(=O)NCc2ccccc2)nc2ccccc21,inactive: -7.29%
20,CCOC(=O)c1c(NC(=O)CSc2cn(CCNC(=O)c3ccc(OCC)cc3)c3ccccc23)sc2c1CCC2,inactive: 8.53%
21,COCCCNC(=O)c1ccc(-n2c(-c3ccccc3)cc3c2CCCCC3)cc1,inactive: 14%
22,CC1Cc2cc(S(=O)(=O)NCc3ccccc3)ccc2N1C(=O)C1CCC1 (centres undefined),inactive: 5.43%
